# According to the supplement of paper PMC8728848:
# The other results are listed elsewhere or left out.
# B1: Tap1 (Sordaria macrospora), Q50IV4 (protein)
# chain: MSHHHHHHHHYTLHLRLINDTSDTLTLVEQTSWWGKNTIWSQVRSTGVHVLSMAASGSSGMLRFQTSKGDFFAVAVGVHNYKRWCDVLVDTADEAPLTKLHPKYYDDKDAKYQALWAQASEFEAKSKSGKTVRIKFYQADGNVLRATVEYL
# How the values were obtained:
# Experiment in all cases: glycan array binding signal (z-score within array); higher = stronger binding
# Settings in all cases: glycan notation: IUPAC condensed, linker removed
# [1] = molecular target: Fuc(a1-2)Gal(b1-4)[Fuc(a1-3)]GlcNAc(b1-2)[Fuc(a1-2)Gal(b1-4)[Fuc(a1-3)]GlcNAc(b1-4)]Man(a1-3)[Fuc(a1-2)Gal(b1-4)[Fuc(a1-3)]GlcNAc(b1-2)Man(a1-6)]Man(b1-4)GlcNAc(b1-4)GlcNAc
# Procedure, shortened: (§1)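 The binding signal is a Z-score computed within each array and averaged over linkers. Arrays of the same protein sequence at different concentrations or buffers were also averaged together. Data originate from 3228 arrays in the Consortium for Functional Glycomics database, kept only where the protein sequence was available.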
# [2] = molecular target: Fuc(a1-2)Gal(b1-4)[Fuc(a1-3)]GlcNAc(b1-3)Gal(b1-4)[Fuc(a1-3)]GlcNAc
# Procedure, shortened: as §1
# [3] = molecular target: Fuc(a1-2)Gal(b1-4)[Fuc(a1-3)]GlcNAc(b1-3)Gal(b1-4)[Fuc(a1-3)]GlcNAc(b1-3)Gal(b1-4)[Fuc(a1-3)]GlcNAc
# Procedure, shortened: as §1
# [4] = molecular target: Fuc(a1-2)Gal(b1-4)[Fuc(a1-3)]GlcNAc(b1-3)GalNAc
# Procedure, shortened: as §1
# Fuc(a1-2)Gal6S(b1-4)Glc = molecular target: Fuc(a1-2)Gal6S(b1-4)Glc
# Procedure, shortened: as §1
# [5] = molecular target: Fuc(a1-2)Gal6S(b1-4)Glc6S
# Procedure, shortened: as §1
# [6] = molecular target: Fuc(a1-2)Gal6S(b1-4)GlcNAc
# Procedure, shortened: as §1
# Fuc(a1-2)[Gal(a1-3)]Gal = molecular target: Fuc(a1-2)[Gal(a1-3)]Gal
# Procedure, shortened: as §1
# [7] = molecular target: Fuc(a1-2)[Gal(a1-3)]Gal(b1-3)GlcNAc
# Procedure, shortened: as §1
# [8] = molecular target: Fuc(a1-2)[Gal(a1-3)]Gal(b1-3)GlcNAc(b1-2)Man(a1-3)[Fuc(a1-2)[Gal(a1-3)]Gal(b1-3)GlcNAc(b1-2)Man(a1-6)]Man(b1-4)GlcNAc(b1-4)GlcNAc
# Procedure, shortened: as §1
# [9] = molecular target: Fuc(a1-2)[Gal(a1-3)]Gal(b1-3)GlcNAc(b1-3)GalNAc
# Procedure, shortened: as §1
# [10] = molecular target: Fuc(a1-2)[Gal(a1-3)]Gal(b1-4)Glc
# Procedure, shortened: as §1
# [11] = molecular target: Fuc(a1-2)[Gal(a1-3)]Gal(b1-4)GlcNAc
# Procedure, shortened: as §1
# [12] = molecular target: Fuc(a1-2)[Gal(a1-3)]Gal(b1-4)GlcNAc(b1-2)Man(a1-3)[Fuc(a1-2)[Gal(a1-3)]Gal(b1-4)GlcNAc(b1-2)Man(a1-6)]Man(b1-4)GlcNAc(b1-4)GlcNAc
# Procedure, shortened: as §1
# [13] = molecular target: Fuc(a1-2)[Gal(a1-3)]Gal(b1-4)GlcNAc(b1-2)Man(a1-3)[Fuc(a1-2)[Gal(a1-3)]Gal(b1-4)GlcNAc(b1-2)Man(a1-6)]Man(b1-4)GlcNAc(b1-4)[Fuc(a1-6)]GlcNAc
# Procedure, shortened: as §1
# [14] = molecular target: Fuc(a1-2)[Gal(a1-3)]Gal(b1-4)GlcNAc(b1-3)GalNAc
# Procedure, shortened: as §1
# [15] = molecular target: Fuc(a1-2)[Gal(a1-3)]Gal(b1-4)[Fuc(a1-3)]Glc
# Procedure, shortened: as §1
# [16] = molecular target: Fuc(a1-2)[Gal(a1-3)]Gal(b1-4)[Fuc(a1-3)]GlcNAc
# Procedure, shortened: as §1
# [17] = molecular target: Fuc(a1-2)[Gal(a1-3)]Gal(b1-4)[Fuc(a1-3)]GlcNAc(b1-3)GalNAc
# Procedure, shortened: as §1
# [18] = molecular target: Fuc(a1-2)[Gal(a1-4)]Gal(b1-4)GlcNAc
# Procedure, shortened: as §1
# [19] = molecular target: Fuc(a1-2)[GalNAc(a1-3)]Gal
# Procedure, shortened: as §1
# [20] = molecular target: Fuc(a1-2)[GalNAc(a1-3)]Gal(b1-3)GalNAc(a1-3)[Fuc(a1-2)]Gal(b1-4)GlcNAc
# Procedure, shortened: as §1
# [21] = molecular target: Fuc(a1-2)[GalNAc(a1-3)]Gal(b1-3)GlcNAc
# Procedure, shortened: as §1
# [22] = molecular target: Fuc(a1-2)[GalNAc(a1-3)]Gal(b1-3)GlcNAc(b1-2)Man(a1-3)[Fuc(a1-2)[GalNAc(a1-3)]Gal(b1-3)GlcNAc(b1-2)Man(a1-6)]Man(b1-4)GlcNAc(b1-4)GlcNAc
# Procedure, shortened: as §1
# [23] = molecular target: Fuc(a1-2)[GalNAc(a1-3)]Gal(b1-3)GlcNAc(b1-3)GalNAc
# Procedure, shortened: as §1
# [24] = molecular target: Fuc(a1-2)[GalNAc(a1-3)]Gal(b1-4)Glc
# Procedure, shortened: as §1
# [25] = molecular target: Fuc(a1-2)[GalNAc(a1-3)]Gal(b1-4)GlcNAc
# Procedure, shortened: as §1
# [26] = molecular target: Fuc(a1-2)[GalNAc(a1-3)]Gal(b1-4)GlcNAc(b1-2)Man(a1-3)[Fuc(a1-2)[GalNAc(a1-3)]Gal(b1-4)GlcNAc(b1-2)Man(a1-6)]Man(b1-4)GlcNAc(b1-4)GlcNAc
# Procedure, shortened: as §1
# [27] = molecular target: Fuc(a1-2)[GalNAc(a1-3)]Gal(b1-4)GlcNAc(b1-3)Gal(b1-4)GlcNAc
# Procedure, shortened: as §1
# [28] = molecular target: Fuc(a1-2)[GalNAc(a1-3)]Gal(b1-4)GlcNAc(b1-3)Gal(b1-4)GlcNAc(b1-3)Gal(b1-4)GlcNAc
# Procedure, shortened: as §1
binder,measurement,setting,value
B1,glycan array binding signal (z-score),[1],-0.112
same,glycan array binding signal (z-score),[2],-0.232
same,glycan array binding signal (z-score),[3],-0.238
same,glycan array binding signal (z-score),[4],-0.028
same,glycan array binding signal (z-score),Fuc(a1-2)Gal6S(b1-4)Glc,-0.234
same,glycan array binding signal (z-score),[5],-0.192
same,glycan array binding signal (z-score),[6],-0.222
same,glycan array binding signal (z-score),Fuc(a1-2)[Gal(a1-3)]Gal,-0.241
same,glycan array binding signal (z-score),[7],-0.215
same,glycan array binding signal (z-score),[8],-0.231
same,glycan array binding signal (z-score),[9],-0.19
same,glycan array binding signal (z-score),[10],-0.234
same,glycan array binding signal (z-score),[11],-0.22
same,glycan array binding signal (z-score),[12],-0.244
same,glycan array binding signal (z-score),[13],-0.228
same,glycan array binding signal (z-score),[14],-0.137
same,glycan array binding signal (z-score),[15],-0.24
same,glycan array binding signal (z-score),[16],-0.147
same,glycan array binding signal (z-score),[17],-0.149
same,glycan array binding signal (z-score),[18],-0.242
same,glycan array binding signal (z-score),[19],-0.246
same,glycan array binding signal (z-score),[20],-0.246
same,glycan array binding signal (z-score),[21],-0.247
same,glycan array binding signal (z-score),[22],-0.23
same,glycan array binding signal (z-score),[23],-0.091
same,glycan array binding signal (z-score),[24],-0.238
same,glycan array binding signal (z-score),[25],-0.236
same,glycan array binding signal (z-score),[26],-0.117
same,glycan array binding signal (z-score),[27],-0.251
same,glycan array binding signal (z-score),[28],-0.216
